# Data from PubChem BioAssay AID488969 (Vanderbilt High Throughput Screening Facility, 2010).
# Whole data set: some 110,000 compounds, median “z-score” near -0.1, cut for the highest 2% near 2. Some of the results follow. Activity calls are given as the source filed them.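 Rule for the calls: active = z-score in the third read window above 3 or below -3; inactive = the rest.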
# Molecular target: Metabotropic glutamate receptor 8 (Rattus norvegicus) (UniProt P70579)
# Experiment: rat mGluR8 modulators via GIRK flux, primary screen, cell-based, thallium flux, HTS (AID 488969)
# Conditions: HEK293 rat mGluR8, GIRK (G protein-gated inwardly rectifying potassium channel) thallium flux, FluoZin2; at 10 µM; stronger effect = higher value; submaximal glutamate (EC20) added with thallium
# Chain of UniProt P70579 (P70579 whole entry, looked up): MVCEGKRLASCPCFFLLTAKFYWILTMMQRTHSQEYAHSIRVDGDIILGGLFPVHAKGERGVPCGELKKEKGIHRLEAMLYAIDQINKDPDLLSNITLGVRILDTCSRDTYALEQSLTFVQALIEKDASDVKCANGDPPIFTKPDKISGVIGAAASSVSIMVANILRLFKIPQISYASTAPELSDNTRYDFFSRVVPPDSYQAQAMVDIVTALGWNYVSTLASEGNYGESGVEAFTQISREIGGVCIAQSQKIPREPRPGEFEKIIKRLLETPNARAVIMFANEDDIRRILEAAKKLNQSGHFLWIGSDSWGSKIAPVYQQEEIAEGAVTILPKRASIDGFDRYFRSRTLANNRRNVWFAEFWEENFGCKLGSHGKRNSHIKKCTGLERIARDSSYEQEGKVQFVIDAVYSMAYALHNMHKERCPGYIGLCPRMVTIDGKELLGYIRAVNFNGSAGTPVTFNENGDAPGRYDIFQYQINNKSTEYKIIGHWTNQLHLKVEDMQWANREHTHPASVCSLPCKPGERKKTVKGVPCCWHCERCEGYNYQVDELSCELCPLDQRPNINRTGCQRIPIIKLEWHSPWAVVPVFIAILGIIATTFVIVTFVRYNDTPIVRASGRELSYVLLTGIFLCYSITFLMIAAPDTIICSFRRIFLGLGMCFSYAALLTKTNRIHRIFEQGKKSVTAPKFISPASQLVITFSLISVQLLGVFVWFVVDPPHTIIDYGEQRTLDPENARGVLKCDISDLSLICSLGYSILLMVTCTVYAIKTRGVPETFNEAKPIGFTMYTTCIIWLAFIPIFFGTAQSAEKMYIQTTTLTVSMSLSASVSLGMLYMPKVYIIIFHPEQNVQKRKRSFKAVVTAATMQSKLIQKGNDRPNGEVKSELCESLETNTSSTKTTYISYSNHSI
row,Compound,z-score
1,COc1ccccc1C(=O)NC(C)C(c1cccs1)N1CCOCC1 (configuration not stated),-0.0315
2,COc1ccc(C2c3c(ccc4ccccc34)Oc3ncn4nc(-c5ccco5)nc4c32)cc1OC (configuration not stated),0.134
3,COC(=O)c1c(NC(=O)CSc2nc(-c3ccco3)cc(C(F)(F)F)n2)sc2c1CCCC2,0.000118
4,O=C(c1ccc([N+](=O)[O-])cc1)N(Cc1ccc(Cl)cc1)N1C(=O)CCCC1=O,-0.682
5,Cc1ccc2cc(C)c(N3CCN(c4ccccn4)CC3)nc2c1,0.37
6,Cc1ccc(-c2cc(C(=O)N3CCOCC3)c3ccccc3n2)cc1,-0.108
7,Cc1nn(-c2ccccc2)c2[nH]c(C(F)(F)F)cc(=O)c12,-0.749
8,O=C(COc1ccc2ccccc2c1)NNC(=O)[C@@H]1CCCC[C@@H]1C(=O)O,-0.306
9,CN1CCN(c2ccc(S(=O)(=O)N3CCCCC3)cc2NC(=O)c2ccc(F)cc2F)CC1,-0.252
10,Cc1ccccc1Cn1nc(C)c(NC(=O)c2sc3ccccc3c2Cl)c1C,-0.431
11,CC1(C)CC(=O)C(C=NCCCN2CCOCC2)=C(O)C1,0.63
12,O=C(CN1CCOCC1)NCc1ccccc1,0.831
13,O=C(Nc1ccc(F)cc1)NC1CCCCC1,0.532
14,NC1=NC(=O)/C(=C/c2c(OS(=O)(=O)c3ccc(Cl)cc3)ccc3ccccc23)S1,-0.185
15,CCN(CC)S(=O)(=O)c1ccc(Cl)c(NC(=O)COC(=O)c2c(C)noc2C)c1,-0.312
16,CCn1cc(C(=O)NCCCOC)c(=O)c2cc(S(=O)(=O)N(C)C)ccc21,-0.209
17,Cc1ccc(N2CCN(/N=C/C=C/c3ccccc3)CC2)cc1,-0.48
18,COCCNC(=O)c1ccccc1-c1nc(-c2ccccc2OC)no1,0.0674
19,CCOC(=O)c1[nH]c(C)c(C(=O)NCc2cccnc2)c1C,-0.309
20,CCOC(=O)C1=C(C)NC2=C(C(=O)c3ccccc32)C1c1ccc(O)cc1 (configuration not stated),-0.0608
21,Cc1ccc(Cn2nnc3c(=O)n(CC(=O)N4CCCc5ccccc54)cnc32)cc1,0.595
22,Cc1cccc(N/C(N)=N/c2nc(C)cc(C)n2)c1,-0.113
23,O=C1C=C(NCC2CCCO2)CC(c2ccccc2)C1 (configuration not stated),0.797

row,Compound,z-score
1,COC(=O)c1cccc(N2C(=O)c3ccccc3S2(=O)=O)c1,-0.0086
2,CCn1c(=O)cc(OCC(=O)Nc2nc(C)cs2)c2ccccc21,-0.697
3,C=CCNC(=O)NC(=S)c1ccccc1,active: 3.72
4,O=C(CSc1nnc(C2CC2)n1-c1ccccc1)Nc1ccc(N2CCOCC2)cc1,-0.231
5,Brc1ccc(NC2=Nc3ccccc3CC2)cc1,-0.031
6,COc1nnc(-c2ccc(N3CCOCC3)c(NC(C)=O)c2)c2ccccc12,-1.64
7,C=CCSC1=N/C(=C\c2ccc(C)o2)C(=O)S1,0.449
8,O=C(Cn1c(=O)sc2ccccc21)NCCOc1ccccc1F,-0.567
9,COc1ccccc1-c1nnc2n1N=C(C)CS2,0.851
10,COc1cccc(-n2nnc3c(=O)n(Cc4ccc(Cl)cc4)cnc32)c1,-0.237
11,Cc1ccc2cc(CCNC(=O)c3ccc4c(c3)OCO4)c(=O)[nH]c2c1C,-0.854
12,Cc1ccc(CSCC(=O)N/N=C/c2sccc2C)cc1,1.26
13,CCOc1cc(C(=O)N(C)c2ccccc2)cc(OCC)c1OCC,0.317
14,Cc1ccc2c(CSc3nnc(N)s3)cc(=O)oc2c1,-0.395
15,CCn1c(/C=C2/C(=O)N(C)c3ccccc32)nc2ccccc2c1=O,-0.0307
16,O=S(=O)(N/N=C/c1ccc(OC2CSC2)cc1)c1ccccc1,-0.00217
17,COc1ccc(NC(=O)CC2C(=O)N(c3ccccc3)C(=O)N2CCc2cccs2)cc1 (configuration not stated),-0.197
18,C=CCn1c(Cc2ccc(OC)cc2)nnc1SCC(=O)c1cccc([N+](=O)[O-])c1,-0.234
19,COC(CNC(=O)c1ccc2c(c1)nc(C)n2-c1cccc(F)c1)OC,-0.149
20,CCCC(CCC)C(=O)Nc1c[nH]c(=O)[nH]c1=O,0.0953
21,Cc1nc2ccccc2n1CCC(=O)O,-0.341
22,COc1nc(N/N=C/c2cc3c(cc2Br)OCO3)nc(N2CCOCC2)n1,-0.297
23,CCOC(=O)c1c(C)[nH]c(C(=O)Nc2ccc3c(c2)OCO3)c1C,-0.531

row,Compound,z-score
1,COc1cc(C2C(C(=O)c3ccc(C)o3)=C(O)C(=O)N2CCc2ccccc2)ccc1O (configuration not stated),-0.133
2,COc1nc(-c2ccccc2)ccc1-c1noc(-c2ccccc2F)n1,0.0977
3,CC(=O)c1cccc(N(CC(=O)N2CCOCC2)S(C)(=O)=O)c1,0.157
4,Cc1ccccc1NC(=S)Nc1ccc(Br)cc1,0.0317
5,COc1ccc(/C=N/NC(=O)CSc2nnc(C)n2-c2ccccc2)c(OC)c1OC,-0.14
6,COc1ccc(OC)c(C2SCCN2S(=O)(=O)c2cccc(C(F)(F)F)c2)c1 (configuration not stated),-0.785
7,COP(=O)(OC)c1nc(-c2ccccc2)oc1NCc1ccccc1,-0.463
8,O=C(O)c1cc2c(s1)-c1ccccc1CC2,-0.417
9,O=C(c1cc2ccccc2oc1=O)N1CCN(Cc2ccc3c(c2)OCO3)CC1,-1.3
10,COCCCNC(=O)COc1ccc(-c2nccc(-c3ccccn3)n2)cc1,0.155
11,Clc1cccc(Cl)c1/C=N\Nc1nccs1,-0.215
12,O=C(NC(=S)Nc1ccc(CN2CCOCC2)cc1)c1ccc([N+](=O)[O-])cc1,0.649
13,O=C(Oc1ccnc2cc(Cl)ccc12)N1CCOCC1,-0.719
14,COc1ccc(/C=C/C(=O)CC(O)(c2ccccc2)C(F)(F)F)cc1 (configuration not stated),0.457
15,Cc1cccc(CSCCNC(=O)Nc2ccccc2)c1,-0.872
16,CCOC(=O)CSc1cc(CS(=O)(=O)c2ccccc2)nc(-c2ccccc2)n1,-0.223
17,CCN(CC)c1ccc(C2=NNC(=O)CC2C)cc1[N+](=O)[O-] (configuration not stated),-0.192
18,CCCN(CCC)C1=N/C(=C\c2ccco2)C(=O)N1c1ccccc1,-0.536
19,O=C1CC(c2c(F)cccc2Cl)C2=C(COC2=O)N1 (configuration not stated),-0.183
20,Cc1ccc(C)c(NC(=O)Cn2nc([N+](=O)[O-])c(Br)c2C)c1,0.0369
21,NS(=O)(=O)c1ccc(NC(=O)COC(=O)C2(c3ccccc3F)CCCC2)cc1,-0.382
22,COc1ccc(C(C)(C)C)cc1S(=O)(=O)N1CCN(C)CC1,0.514
23,O=C(NO)C1CC2C=CC1C2 (configuration not stated),0.117

row,Compound,z-score
1,COc1cc(C2C(N3C(=O)c4ccccc4C3=O)C(=O)N2c2cccc(C)c2)cc(OC)c1OC (configuration not stated),-0.098
2,COC(=O)c1ccc(COc2ccc(-c3nnn(CC(=O)NC(C)(C)C)n3)cc2)cc1,-0.234
3,Cc1ccc(C)c(C(=O)CN2C3=NCCCN3c3ccccc32)c1,0.0716
4,COc1ccc(-c2nnn(CC#N)n2)cc1OC,0.66
5,COc1ccccc1C(=O)NNC1=C(C(=O)C(F)(F)F)CCC1,0.881
6,COc1ccccc1NC(=O)c1c(C)cc(=O)oc1C,-0.0507
7,Cc1ncoc1C(=O)Nc1ccccc1-c1ccccc1,-0.54
8,CC1CN(C(=O)C(c2ccccc2)c2ccccc2)CC(C)O1 (configuration not stated),-0.159
9,CCOC(=O)N1CCN(CC(=O)Nc2ccc(OC)cc2)CC1,1.09
10,COc1ccc(NC(=O)CN(C)C(=O)c2ccc(C)s2)cc1,-0.0453
11,Cc1cccc(C)c1NC(=O)N1CCN(C2CCCCC2)CC1,0.807
12,Cn1cccc1C1Nc2ccccc2NC2=C1C(=O)CC(C)(C)C2 (configuration not stated),-0.491
13,CC(CCC(=O)Nc1nncs1)C(=O)O (configuration not stated),-0.417
14,Nc1nnc(SCC(=O)Nc2sc3c(c2C(=O)c2ccccc2)CCCC3)s1,-0.308
15,Cc1nc2cc(NC(=O)N3c4ccccc4CC3C)ccc2n1C (configuration not stated),-0.544
16,CC(C)CN(CC(C)C)S(=O)(=O)N1CCC(C(=O)NCCc2ccc(Cl)cc2)CC1,-0.189
17,Oc1ccc(Cl)cc1C=Nc1ccc2c3c(cccc13)CC2,-0.239
18,C[C@@H]1C[C@H](Nc2ccccc2)c2ccccc2N1C(=O)c1cccnc1,0.608
19,CCCN(CCC)Cc1cc2ccccc2c2c1COC2,0.142
20,CCC(NC(=O)NC1=NCCS1)(C(F)(F)F)C(F)(F)F,0.399
21,O=C(Oc1cc(-c2ccccc2)no1)c1ccc(F)cc1,-0.196
22,COc1ccc(N=c2oc3ccc(OC)cc3cc2-c2nc3ccccc3[nH]2)cc1,0.132
23,COc1ccc2nc3oc(C(=O)Nc4ccc(OC)c(OC)c4)cc3cc2c1,active: 4.91

row,Compound,z-score
1,CCc1cc2c(=O)nc3n(c2s1)Cc1ccccc1/C3=C(/O)c1ccccc1Cl,0.201
2,c1ccc2c(c1)[nH]c1nc(SCCN3CCOCC3)nnc12,0.00762
3,Cc1cccc(-c2cc(C(=O)NCc3ccccn3)c3ccccc3n2)c1,-0.443
4,O=C(CN1CCSC1=NCc1ccccc1)c1ccc(Cl)c(Cl)c1,0.147
5,COc1cccc(NCc2cc3c(C(C)(C)C)nn(-c4ccccc4)c3[nH]c2=O)c1,0.377
6,NC(=O)CSc1nnc(-c2ccc(S(=O)(=O)N3CCCC3)cc2)o1,-0.271
7,O=C1c2ccccc2C(=O)c2cc(NC(=O)C3CC3)ccc21,-0.249
8,Cc1cc(NC(=O)CSc2nc3ccsc3c(=O)n2NC(=O)c2ccccc2)no1,active: 3.32
9,O=C(CCc1ccc(S(=O)(=O)NCCc2ccccc2)cc1)Nc1ccc2c(c1)OCO2,0.0814
10,C=CCn1c(SC)nc2sc3c(c2c1=O)CCc1ccccc1-3,-0.165
11,COc1ccc2[nH]c3ccccc3c2c1,0.126
12,CCN(CC)CCNc1ncnc2c1sc1nc(N3CCOCC3)c3c(c12)CC(C)(C)SC3,-0.0997
13,COC(=O)C1C2C=CC3(CN(Cc4ccco4)C(=O)C13)O2 (configuration not stated),0.49
14,CN1/C(=C\C(=O)COC(=O)Cn2nnc(-c3ccccc3)n2)C(C)(C)c2ccccc21,0.88
15,CCCCNC(=S)NC(=O)c1ccc(Cl)cc1Cl,active: 3.01
16,CCn1c(SCC(=O)NCc2ccco2)nc2cccnc21,0.177
17,Cc1oc2c(c1C(=O)NCc1ccccc1)CCCC2,-0.83
18,CCOC(=O)C1=NOC(CNC(=O)c2c(-c3ccccc3Cl)noc2C)C1 (configuration not stated),-0.184
19,COc1ccc(COc2ccccc2C(=O)Nc2ccccn2)cc1[N+](=O)[O-],-0.201
20,O=C1OCCC1Sc1nnc(-c2ccccc2Cl)n1Cc1ccccc1 (configuration not stated),-0.11
